# Assay results reported in PubChem BioAssay AID2147 (National Center for Advancing Translational Sciences (NCATS), 2009).
# Among all 230,000 compounds or so, about 3,600 (1.6%) were called active. Inconclusive results, whose numbers are uncertain, are shown with a selection of clear calls. Calls come from the whole dose curve; as a rule, active = well fitted inhibition curve with a large enough effect (not every such curve was filed as active); inconclusive = small, poorly fitted or top-dose-only effect, or another doubt; inactive = no such curve, though single readings can be large or run the other way. Where the call is inconclusive, the potency comes from a doubtful curve fit.
# Biological target: Lysine-specific demethylase 4E (Homo sapiens) (UniProt B2RXH2)
# Assay: qHTS Assay for Inhibitors of Human Jumonji Domain Containing 2E (JMJD2E)
# Conditions: JMJD2E catalytic domain, FDH-coupled NADH fluorescence (FDH is formaldehyde dehydrogenase); series mostly up to 57.1 µM; activity change, negative = inhibition: at the top concentration
# Note: nearly all actives have a fitted effect of over 50% in size.
# Potency is the fitted concentration of half-maximal effect; tags give direction and shape of the fitted curve.
# 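Throughout, for activity change, negative = inhibition: 0% = wells with enzyme and -100% = buffer wells without enzyme.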
# UniProt B2RXH2, sequence (B2RXH2 whole entry, looked up, the tested form may be a part): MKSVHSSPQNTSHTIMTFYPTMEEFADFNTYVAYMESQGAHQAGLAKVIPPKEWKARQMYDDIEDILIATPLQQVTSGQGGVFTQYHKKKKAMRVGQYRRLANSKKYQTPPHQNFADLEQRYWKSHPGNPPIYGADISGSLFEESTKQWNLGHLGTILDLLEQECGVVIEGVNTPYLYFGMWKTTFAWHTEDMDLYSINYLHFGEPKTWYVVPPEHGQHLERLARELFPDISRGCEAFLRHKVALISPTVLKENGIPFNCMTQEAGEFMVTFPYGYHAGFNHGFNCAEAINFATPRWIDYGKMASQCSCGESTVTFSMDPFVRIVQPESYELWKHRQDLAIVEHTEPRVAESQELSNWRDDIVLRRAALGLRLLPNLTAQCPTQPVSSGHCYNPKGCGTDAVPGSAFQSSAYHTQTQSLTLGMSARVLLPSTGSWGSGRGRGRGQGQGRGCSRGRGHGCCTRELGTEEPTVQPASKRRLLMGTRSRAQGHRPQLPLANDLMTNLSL
Compound,Potency,"activity change, negative = inhibition"
O=C1NCCN(Cc2c(F)cccc2Cl)C1CC(=O)N1CCCO1 (configuration not stated),"inconclusive: 28.2 µM [inhibitor, partial curve]",–
CC12CC3CC(C)(C1)CC(Nc1nc(N4CCOCC4)nc4ccccc14)(C3)C2,"inconclusive: 3.16 µM [inhibitor, partial curve]",–
CC(=N/O)/C(C)=N\NC(=O)c1ccccn1,–,inactive: 3.21%
CCOc1ccc(NC(=O)C(C)Oc2ccccc2C(=O)Nc2cccc(Cl)c2Cl)cc1 (configuration not stated),–,inactive: 8.3%
O=C(O)c1ccc(N/N=C/c2ccc(-c3ccccc3Cl)o2)cc1,"inconclusive: 31.6 µM [inhibitor, single point]",–
COc1ccc(-c2cc(C(=O)OCC(=O)NC(C)(C)C)c3ccccc3n2)cc1,"inconclusive: 28.2 µM [inhibitor, partial curve]",–
COc1cccc(C2C3=C(CC(C)(C)CC3=O)Nc3cc4c(cc32)OCO4)c1 (configuration not stated),"inconclusive: 25.1 µM [inhibitor, partial curve]",–
COC(=O)c1ccccc1NC(=O)c1c(O)c2c([nH]c1=O)CCCC2,"inconclusive: 39.8 µM [inhibitor, single point]",–
CC1(C)CCCN(Cc2c(O)ccc3c(=O)c(-c4nc5ccccc5s4)c(N)oc23)C1,"inconclusive: 20 µM [inhibitor, single point]",–
CC1=NN(c2ccc(C)cc2C)C(=O)C1C(c1cccc(O)c1)C1C(=O)N(c2ccc(C)cc2C)N=C1C (configuration not stated),"inconclusive: 1.78 µM [inhibitor, partial curve, poor fit]",–
O=C(O)Cn1c2ccccc2c2ccccc21,"inconclusive: 39.8 µM [inhibitor, single point]",–
COc1ccc2c(c1)O[C@@H](c1ccc3c(c1)OCO3)[C@H](OC(=O)NS(=O)(=O)c1ccc(C)cc1)C2=O,–,inactive: -12.6%
CC(/C=C/c1ccccc1F)=N\NC(=O)c1cccc(F)c1,–,inactive: 4.71%
CN(C)S(=O)(=O)c1cccc(NC(=O)COC(=O)c2ccc(Br)o2)c1,–,inactive: 1.37%
COc1ccc(O)c(C=NCC(C)N=Cc2cc(OC)ccc2O)c1 (configuration not stated),"inconclusive: 11.2 µM [inhibitor, partial curve]",–
COc1ccc(OC)c2c(C)cc(NCCN3CCOCC3)nc12,"inconclusive: 22.4 µM [inhibitor, partial curve]",–
O=c1nc(-c2ccccc2)cc(C(F)(F)F)[nH]1,"inconclusive: 25.1 µM [inhibitor, partial curve]",–
C=CCN1CCN(C(c2ccc(OC)c(OC)c2)c2nnnn2C(C)(C)C)CC1 (configuration not stated),–,inactive: 4.56%
O=C(NC1CCCCC1)N(Cc1cc2cc3c(cc2[nH]c1=O)OCCO3)CC1CCCO1 (configuration not stated),"inconclusive: 31.6 µM [inhibitor, partial curve]",–
Cc1cc(C(=O)CNCc2ccco2)c(C)n1-c1ccc(F)cc1,–,inactive: -29.1%
CCc1ccc(C(=O)NNc2ccc(F)cc2)cc1,–,inactive: -20.4%
COc1ccc(C(=O)Nc2cc(OC)ccc2OC)cc1,–,inactive: -2.64%
CCCC(=O)Nc1ccc(Nc2ccccc2)cc1,–,inactive: 7.17%
Cc1ccc(C)c(SCC(=O)NCc2ccco2)c1,–,inactive: 3.86%

Compound,Potency,"activity change, negative = inhibition"
COC(=O)c1ccccc1NC(=S)NC(=O)COc1ccccc1Cl,–,inactive: -3.63%
CCCOc1cccc(NC(=O)c2cc(C)oc2C)c1,–,inactive: -1.67%
CCC(C)c1ccc(OCCn2ccnc2)cc1 (configuration not stated),–,inactive: -27%
COCc1cc(=O)n2c(-c3ccccc3OC)n[nH]c2n1,"inconclusive: 28.2 µM [inhibitor, single point]",–
COc1ccc(C[C@H]2CN3C(=NC[C@@H]3Cc3ccc(O)cc3)N2CCNC(=O)c2ccc(C)c(Br)c2)cc1,–,inactive: -5.83%
COc1ccc2cc(C(N)=O)c(=Nc3ccc(C)cc3)oc2c1,"inconclusive: 35.5 µM [inhibitor, single point]",–
O=C(CSc1n[nH]c(-c2ccncc2)n1)NC1CCS(=O)(=O)C1 (configuration not stated),"inconclusive: 25.1 µM [inhibitor, partial curve]",–
Cc1cc(S(=O)(=O)Nc2cccnc2)c(C)s1,–,inactive: 4.18%
CCC(=O)NCc1cc(-c2nn(C)c(=O)c3ccccc23)ccc1OC,"inconclusive: 15.8 µM [inhibitor, partial curve]",–
COc1cc2c(cc1OC)CN(Cc1cc(=O)oc3cc(C)c(Cl)cc13)CC2,"inconclusive: 15.8 µM [inhibitor, partial curve]",–
CCC(=O)Nc1nonc1-c1nc2ccccc2n1CC(C)C,"inconclusive: 31.6 µM [inhibitor, partial curve]",–
COc1ccccc1C(=O)Nc1nc(-c2ccc(S(=O)(=O)N3CCOCC3)cc2)cs1,"inconclusive: 28.2 µM [inhibitor, single point]",–
Cc1cccnc1Nc1ncnc(N)c1[N+](=O)[O-],–,inactive: -3.5%
COc1ccc(C(=O)NCc2cn3ccccc3n2)cc1,"inconclusive: 28.2 µM [inhibitor, single point]",–
COc1cnn(-c2ccccc2)c(=O)c1OC,–,inactive: -25.2%
Cn1c(=O)c2c(ncn2Cc2ccccc2)n(C)c1=O,–,inactive: -3.17%
C#CCOCCOCCOCCNc1nc(N2CCN(C(=O)[C@H](CCCCN)n3cc([C@@H](N)CO)nn3)CC2)nc(N2CCN(C(=O)[C@H](Cc3cc4ccccc4[nH]3)n3cc([C@@H](N)CO)nn3)CC2)n1,–,inactive: -18.8%
CCOC(=O)N1CCN(C(=O)c2cn(C)c(=O)c3c2c2ccccc2n3C)CC1,"inconclusive: 28.2 µM [inhibitor, partial curve]",–
CC(C)CC1c2[nH]c3ccccc3c2CCN1C(=O)C1CCOCC1 (configuration not stated),"inconclusive: 39.8 µM [inhibitor, single point]",–
NC(=O)c1cc2ccc(O)cc2oc1=NCc1ccccc1,"inconclusive: 28.2 µM [inhibitor, partial curve]",–
C=CCn1c(=O)c(C(=O)NCCN(CC)CC)c(O)c2ccccc21,"inconclusive: 31.6 µM [inhibitor, single point]",–
COc1ccc(CN(C(=O)c2snc(C(N)=O)c2N)C(C(=O)NC(C)(C)C)c2ccco2)cc1 (configuration not stated),"inconclusive: 35.5 µM [inhibitor, partial curve]",–
CC(C)(C)NCCOc1ccc(Br)cc1,"inconclusive: 31.6 µM [inhibitor, single point]",–
